{
  "source": "PubChem BioAssay AID1508624",
  "about": "(National Center for Advancing Translational Sciences (NCATS), 2021)",
  "note": "Hit rate of the full screen: of about 48,000 compounds, about 120 (0.25%) were called active. Not shown: some 4% with an inconclusive outcome. Calls follow the shape of the dose curve; as a rule, active = well fitted activation curve with a large enough effect; inconclusive = small, poorly fitted or top-dose-only effect, or another doubt; inactive = no such curve, though single readings can be large or run the other way. Some of the results follow.",
  "data": [
    {"experiment": "Primary qHTS for Identification of Small Molecule Activators of Huntingtin-Antisense Promoter Activity; also: nearly all actives have a fitted effect of over 55% in size", "settings": "HEK293 HTT-AS promoter firefly luciferase reporter (activity 0% = vehicle and -100% = no light), 24 h; series mostly up to 57.5 µM; activity change, positive = activation: at the top concentration", "how_it_was_run": "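HEK293 cells carrying firefly luciferase reporters were seeded at 2,500 per well in Opti-MEM and cultured for 24 h. They were then treated with compounds at up to 57.5 uM final for 24 h at 37 degrees C before Dual-Glo luminescence readout.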", "values": [
      {"molecule": "COc1ccc(NC(=O)CSc2nc3c(oc4ccccc43)c(=O)n2-c2ccccc2)cc1OC", "activity change, positive = activation": "inactive: -18.1%"},
      {"molecule": "COc1ccc(-c2nc3scc(CCNS(=O)(=O)c4c(C)cc(C)cc4C)n3n2)cc1OC", "activity change, positive = activation": "inactive: -23.5%"},
      {"molecule": "CCc1nn2c(=O)cc(COC(=O)c3ccc4c(c3)OCO4)nc2s1", "activity change, positive = activation": "inactive: 12.7%"},
      {"molecule": "O=C(NCCn1cc(SCc2ccccc2)c2ccccc21)c1cccs1", "activity change, positive = activation": "inactive: -36.6%"},
      {"molecule": "COc1ccccc1CNC(=O)CCCCn1c(=O)c2ccccc2n(Cc2ccccc2C)c1=O", "activity change, positive = activation": "inactive: -30.6%"},
      {"molecule": "Cc1cc(C)cc(C(=O)Nc2cccc(-c3nc4ncccc4o3)c2C)c1", "activity change, positive = activation": "inactive: -0.66%"},
      {"molecule": "CC(C)(C)C1CCc2c(sc(NC(=O)c3ccccc3F)c2C(=O)NCc2ccco2)C1", "note": "(configuration not stated)", "activity change, positive = activation": "inactive: -19%"},
      {"molecule": "NC(=O)c1ncn([C@@H]2O[C@H](CO)[C@@H](O)[C@H]2O)c1N", "activity change, positive = activation": "inactive: -1.4%"},
      {"molecule": "CC(=O)c1cccc(NC(=O)c2ccc(Cl)c(S(=O)(=O)N3CCOCC3)c2)c1", "activity change, positive = activation": "inactive: -22.9%"},
      {"molecule": "CCOC(=O)c1cc2c(=O)n3ccccc3nc2n(CCOC)c1=NC(=O)c1cc2ccccc2o1", "activity change, positive = activation": "inactive: 12.3%"},
      {"molecule": "c1ccc(N2CCN(Cc3nnc(-c4ccc5c(c4)OCO5)o3)CC2)cc1", "activity change, positive = activation": "inactive: 20.2%"},
      {"molecule": "COc1ccc(C2=NS(=O)(=O)N(C)C(C(=O)Nc3ccc(OC(F)(F)F)cc3)=C2)cc1", "activity change, positive = activation": "inactive: -27.4%"},
      {"molecule": "CN(Cc1ccccc1)S(=O)(=O)c1nnc(NC(=O)c2ccccc2Cl)s1", "activity change, positive = activation": "inactive: -21.2%"},
      {"molecule": "COc1ccc(-c2nc(Cn3c(=O)cc(-c4ccccc4)c4c(C)nn(C)c43)c(C)o2)cc1OC", "activity change, positive = activation": "inactive: -6.51%"},
      {"molecule": "CCOc1ccc(Nc2nc3c(S(=O)(=O)c4ccc(CC)cc4)nnn3c3ccc(Cl)cc23)cc1", "activity change, positive = activation": "inactive: 0.199%"},
      {"molecule": "CC1CCN(S(=O)(=O)c2ccc3c(ccc(=O)n3CC(=O)NCc3ccc(Cl)cc3)c2)CC1", "activity change, positive = activation": "inactive: -34%"},
      {"molecule": "CC(=O)N1CCc2cc(Br)cc(S(=O)(=O)NCCc3ccc(Cl)cc3)c21", "activity change, positive = activation": "inactive: -6.21%"},
      {"molecule": "CC(=O)c1cccc(NC(=O)CCc2nc3cccnc3n2Cc2cccs2)c1", "activity change, positive = activation": "inactive: -17.1%"},
      {"molecule": "O=C(c1cccn1-c1nnc(N2CCCCC2)s1)N1CCN(c2ccc(Cl)cc2)CC1", "activity change, positive = activation": "inactive: -12.9%"},
      {"molecule": "COc1ccc(CCNc2nc3ccc(C)cc3n3cnnc23)cc1OC", "activity change, positive = activation": "inactive: -4.7%"},
      {"molecule": "CCOC(=O)CSc1nc(-c2ccc(F)cc2)cc(C(F)(F)F)c1C#N", "activity change, positive = activation": "inactive: -27.2%"},
      {"molecule": "COc1ccc(S(=O)(=O)N(CC(=O)Nc2cc(C)cc(C)c2)c2ccc(Cl)cc2)cc1", "activity change, positive = activation": "inactive: -34.9%"},
      {"molecule": "CCn1c(C(=O)N2CCC(C(=O)N3CCN(c4ccc(OC)cc4)CC3)CC2)cc2sccc21", "activity change, positive = activation": "inactive: -23.9%"},
      {"molecule": "COc1ccc(Cl)cc1N=C1NC(=O)CC(C(=O)Nc2ccccc2C(F)(F)F)S1", "note": "(configuration not stated)", "activity change, positive = activation": "inactive: -23.2%"},
      {"molecule": "CCc1ccccc1N1CC(c2nc3ccccc3n2CCOc2ccc(Cl)c(C)c2)CC1=O", "note": "(configuration not stated)", "activity change, positive = activation": "inactive: -69.6%"},
      {"molecule": "CCNc1nc(NC(C)(C)C)nc(Oc2ccc(=O)n(-c3ccccc3)n2)n1", "activity change, positive = activation": "inactive: -28.5%"},
      {"molecule": "CC(C)Oc1ccc(CNC(=O)c2ccc3nc(C(C)C)oc3c2)cc1", "activity change, positive = activation": "inactive: 20.8%"},
      {"molecule": "CN(C)c1ccc(C(=O)Nc2c(C(=O)NC(C)(C)C)oc3ccccc23)cc1", "activity change, positive = activation": "inactive: 1.02%"},
      {"molecule": "Cc1cc(C)cc(NC(=O)C(CC(C)C)NC(=O)C2CCCCC2)c1", "note": "(configuration not stated)", "activity change, positive = activation": "inactive: -4.42%"},
      {"molecule": "Cc1ccc(NS(=O)(=O)c2c(C)nc3sccn3c2=O)c(Cl)c1", "activity change, positive = activation": "inactive: -20.5%"},
      {"molecule": "Cc1ccc(Cl)c(OCC(O)CNC(C)(C)C)c1", "note": "(configuration not stated)", "activity change, positive = activation": "inactive: -7.37%"},
      {"molecule": "Cc1ccc(-n2c(=O)c3c(c4cc(C)ccc4n3C)n(CC(=O)NCC3CCCO3)c2=O)cc1", "note": "(configuration not stated)", "activity change, positive = activation": "inactive: -15.9%"},
      {"molecule": "CCC(=O)O[C@H]1[C@H](O[C@@H]2[C@@H](C)[C@H](O[C@H]3C[C@@](C)(OC)[C@@H](O)[C@H](C)O3)[C@@H](C)C(=O)O[C@H](CC)[C@@](C)(O)[C@H](O)[C@@H](C)C(=O)[C@H](C)C[C@@]2(C)O)O[C@H](C)C[C@@H]1N(C)C", "activity change, positive = activation": "inactive: -6.82%"},
      {"molecule": "COc1cc(Cl)c(NC(=O)CC(C)S(=O)(=O)c2cc3c(cc2C)NC(=O)CO3)c(OC)c1", "note": "(configuration not stated)", "activity change, positive = activation": "inactive: 0.556%"},
      {"molecule": "Cc1ccc(NC(=O)CSc2nncn3c2cc2sccc23)cc1F", "activity change, positive = activation": "inactive: -12.8%"},
      {"molecule": "CC(C)c1ccc(NC(=O)c2cc(S(=O)(=O)N3CCc4ccccc4C3)ccc2F)cc1", "activity change, positive = activation": "inactive: -15.5%"},
      {"molecule": "Cc1cccc(NC(=O)CCn2nc(C)c3c(C)n(-c4ccccc4)nc3c2=O)c1C", "activity change, positive = activation": "inactive: -1.21%"},
      {"molecule": "CCCCOC(=O)c1ccc(NC2=NS(=O)(=O)c3ccccc32)cc1", "activity change, positive = activation": "inactive: -17.1%"},
      {"molecule": "Cc1ccc(-c2nc3n(n2)C(=O)CC(c2ccc(C)cc2)S3)cc1", "note": "(configuration not stated)", "activity change, positive = activation": "inactive: 3.11%"},
      {"molecule": "COc1cccc(-c2ccc3c(N)c(C(=O)c4ccc(F)cc4)sc3n2)c1", "activity change, positive = activation": "inactive: 8.09%"},
      {"molecule": "CC(NC(=O)CCCN1C(=O)CCn2nc(-c3cn(C)c4ccccc34)cc21)c1ccccc1", "note": "(configuration not stated)", "activity change, positive = activation": "inactive: -37.2%"},
      {"molecule": "NC(=O)c1ccc(-c2nc(-c3ccc4c(c3)OCO4)c(-c3ccccn3)[nH]2)cc1", "activity change, positive = activation": "inactive: -10.1%"},
      {"molecule": "CCOC(=O)c1c(C)oc2nc(C)nc(NCC3CCN(Cc4ccc(F)cc4)CC3)c12", "activity change, positive = activation": "inactive: -7.18%"},
      {"molecule": "COc1ccc(CNc2ncnc3c2cnn3-c2ccc(Cl)cc2)cc1", "activity change, positive = activation": "inactive: 7.64%"},
      {"molecule": "O=C(Nc1ccc(Cl)c(-c2nc3ccccc3o2)c1)c1cccc2c(Cl)cccc12", "activity change, positive = activation": "inactive: -0.132%"},
      {"molecule": "Cc1ccc(CSC2=Nc3ccccc3C3=NC(CCC(=O)NCc4cccs4)C(=O)N23)c(C)c1", "note": "(configuration not stated)", "activity change, positive = activation": "inactive: -1.13%"},
      {"molecule": "COc1ccc(Nc2ccc3cc(S(=O)(=O)N4CCCC4)ccc3n2)cc1OC", "activity change, positive = activation": "inactive: -24.7%"}
    ]}
  ]
}
